Assay results taken from paper PMC5625722.
No constants are given. Whether binding was seen depends on the method and setting. For some of these results: In cells and extracts the contact can be indirect. Some binding calls cover weakened binding; strength is not graded here. For some of these results: Sequences can lack the tags named with a protein. Values belong to the binder of their own block, whether it stands above or below them.

The chains behind the UniProt entries cited, without tags or fusion partners. Residues count along the entry.
UniProt P02769, residues 25-607: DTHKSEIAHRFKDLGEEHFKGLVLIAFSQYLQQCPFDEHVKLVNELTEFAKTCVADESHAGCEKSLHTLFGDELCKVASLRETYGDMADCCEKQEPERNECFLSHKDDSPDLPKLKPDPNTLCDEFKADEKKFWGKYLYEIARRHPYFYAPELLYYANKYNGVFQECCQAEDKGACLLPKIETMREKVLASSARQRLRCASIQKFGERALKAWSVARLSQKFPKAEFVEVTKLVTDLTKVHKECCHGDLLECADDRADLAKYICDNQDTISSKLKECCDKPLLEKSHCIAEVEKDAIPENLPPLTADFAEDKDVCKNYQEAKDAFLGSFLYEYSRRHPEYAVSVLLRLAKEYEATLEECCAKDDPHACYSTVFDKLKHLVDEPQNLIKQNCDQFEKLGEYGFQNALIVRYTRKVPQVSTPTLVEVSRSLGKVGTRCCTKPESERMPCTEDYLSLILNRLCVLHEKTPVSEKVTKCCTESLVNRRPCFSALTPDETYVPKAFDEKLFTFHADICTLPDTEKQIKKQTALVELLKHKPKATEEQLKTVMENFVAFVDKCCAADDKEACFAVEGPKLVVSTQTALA

Experiments:
[1] = molecular target: bovine serum albumin (BSA) (bovine) (UniProt P02769); assay: pull-down; PCNA or BSA covalently bound to Affi-beads; purified Mus81-Mms4 (5 μg); Tris buffer with 100 mM KCl, 30 min at 4 °C; washed twice with 150 mM KCl; SDS gel; both purified
[2] = molecular target: T1, N-terminal fragment of Mus81 (1-319) (yeast) (UniProt Q04149); assay: pull-down; purified His-tagged Mus81-Mms4, Mus81 or Mus81 (1-319) mixed with yeast cell extract (150 μL) containing Flag-tagged RFC2 or RFC4, captured on Ni-NTA beads, 30 min at 4 °C; washed with IP150 buffer (150 mM KCl, 0.5% Triton X-100); anti-Flag and anti-His immunoblot; only the target purified
T1 sequence: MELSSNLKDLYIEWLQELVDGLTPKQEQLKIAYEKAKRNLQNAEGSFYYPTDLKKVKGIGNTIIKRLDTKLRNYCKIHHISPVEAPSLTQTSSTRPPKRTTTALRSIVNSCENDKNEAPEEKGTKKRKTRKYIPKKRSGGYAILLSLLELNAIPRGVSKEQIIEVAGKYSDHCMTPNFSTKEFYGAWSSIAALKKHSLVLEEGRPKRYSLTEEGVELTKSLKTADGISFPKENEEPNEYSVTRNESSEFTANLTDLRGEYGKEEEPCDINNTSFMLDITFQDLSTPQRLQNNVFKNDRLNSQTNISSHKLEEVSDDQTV

[3] = molecular target: T2, Mus81-Mms4 complex (yeast) (UniProt Q04149+P38257); assay: as above
T2 sequence 1: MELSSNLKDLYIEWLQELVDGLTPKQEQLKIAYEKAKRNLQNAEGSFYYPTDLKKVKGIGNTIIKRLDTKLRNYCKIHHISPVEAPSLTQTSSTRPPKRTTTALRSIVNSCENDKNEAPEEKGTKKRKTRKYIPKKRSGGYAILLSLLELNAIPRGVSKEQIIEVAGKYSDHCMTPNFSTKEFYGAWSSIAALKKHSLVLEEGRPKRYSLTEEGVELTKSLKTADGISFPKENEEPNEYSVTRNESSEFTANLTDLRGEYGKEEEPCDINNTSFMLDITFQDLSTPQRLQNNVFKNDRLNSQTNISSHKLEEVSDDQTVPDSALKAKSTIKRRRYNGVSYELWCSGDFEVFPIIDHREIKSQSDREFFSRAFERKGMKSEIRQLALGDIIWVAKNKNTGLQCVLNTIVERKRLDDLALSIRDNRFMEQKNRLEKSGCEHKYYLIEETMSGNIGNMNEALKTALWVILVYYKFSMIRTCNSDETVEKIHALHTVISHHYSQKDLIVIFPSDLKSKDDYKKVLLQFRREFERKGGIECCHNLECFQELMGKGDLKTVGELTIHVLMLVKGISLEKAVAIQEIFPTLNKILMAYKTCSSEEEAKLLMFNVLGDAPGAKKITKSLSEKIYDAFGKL
T2 sequence 2: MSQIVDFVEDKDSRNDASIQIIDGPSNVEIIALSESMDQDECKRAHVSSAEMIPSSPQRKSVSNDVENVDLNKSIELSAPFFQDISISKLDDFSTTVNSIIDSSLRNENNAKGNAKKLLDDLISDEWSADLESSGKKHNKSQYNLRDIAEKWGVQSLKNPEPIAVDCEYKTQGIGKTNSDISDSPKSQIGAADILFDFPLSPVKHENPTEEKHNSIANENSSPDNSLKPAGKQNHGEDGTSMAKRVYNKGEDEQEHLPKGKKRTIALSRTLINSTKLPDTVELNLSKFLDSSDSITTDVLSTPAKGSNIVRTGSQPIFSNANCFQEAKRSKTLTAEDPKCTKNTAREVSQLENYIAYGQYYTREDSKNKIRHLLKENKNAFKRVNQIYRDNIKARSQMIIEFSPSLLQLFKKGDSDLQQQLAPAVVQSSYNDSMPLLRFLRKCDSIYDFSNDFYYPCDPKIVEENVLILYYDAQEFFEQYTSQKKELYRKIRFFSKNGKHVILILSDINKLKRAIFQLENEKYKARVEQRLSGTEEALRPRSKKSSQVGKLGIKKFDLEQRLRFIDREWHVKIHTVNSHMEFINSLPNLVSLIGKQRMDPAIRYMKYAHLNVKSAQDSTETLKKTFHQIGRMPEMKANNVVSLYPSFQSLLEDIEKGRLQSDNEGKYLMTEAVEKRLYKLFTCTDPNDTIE

[4] = molecular target: T3, Mus81 protein alone (yeast) (UniProt Q04149); assay: as above
T3 sequence: T2 sequence 1

binding [1]: no binding (tested: 5 μg Mus81-Mms4)
B1: Mus81-Mms4 complex (complex, UniProt Q04149 1-632; P38257 1-691)
chain 1: T2 sequence 1
chain 2: T2 sequence 2

binding [2]: binds | binding [3]: binds | binding [4]: binds
B2: Flag-tagged RFC4 (protein, UniProt P40339 1-323)
chain: MSKTLSLQLPWVEKYRPQVLSDIVGNKETIDRLQQIAKDGNMPHMIISGMPGIGKTTSVHCLAHELLGRSYADGVLELNASDDRGIDVVRNQIKHFAQKKLHLPPGKHKIVILDEADSMTAGAQQALRRTMELYSNSTRFAFACNQSNKIIEPLQSRCAILRYSKLSDEDVLKRLLQIIKLEDVKYTNDGLEAIIFTAEGDMRQAINNLQSTVAGHGLVNADNVFKIVDSPHPLIVKKMLLASNLEDSIQILRTDLWKKGYSSIDIVTTSFRVTKNLAQVKESVRLEMIKEIGLTHMRILEGVGTYLQLASMLAKIHKLNNKA

binding [2]: binds | binding [3]: binds | binding [4]: binds
B3: Flag-tagged RFC2 (protein, UniProt P40348 1-353)
chain: MFEGFGPNKKRKISKLAAEQSLAQQPWVEKYRPKNLDEVTAQDHAVTVLKKTLKSANLPHMLFYGPPGTGKTSTILALTKELYGPDLMKSRILELNASDERGISIVREKVKNFARLTVSKPSKHDLENYPCPPYKIIILDEADSMTADAQSALRRTMETYSGVTRFCLICNYVTRIIDPLASRCSKFRFKALDASNAIDRLRFISEQENVKCDDGVLERILDISAGDLRRGITLLQSASKGAQYLGDGKNITSTQVEELAGVVPHDILIEIVEKVKSGDFDEIKKYVNTFMKSGWSAASVVNQLHEYYITNDNFDTNFKNQISWLLFTTDSRLNNGTNEHIQLLNLLVKISQL
